# The campaign covered roughly 110,000 compounds. About 230 (0.21%) showed an effect of 50% or more. The list shows a part of the results.
# Molecular target: DPAP1 (Plasmodium falciparum, UniProt Q8IIJ9)
# Test: primary screen, percent inhibition; read by cleavage of a fluorogenic dipeptide substrate; higher = more effect of the substance
# Parameters: species or system P. falciparum D10 trophozoite lysates; single well
# 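Note: 30 min substrate incubation versus DMSO and 10 µM JCP410 controls.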
# DPAP1, sequence (Q8IIJ9 whole entry, looked up): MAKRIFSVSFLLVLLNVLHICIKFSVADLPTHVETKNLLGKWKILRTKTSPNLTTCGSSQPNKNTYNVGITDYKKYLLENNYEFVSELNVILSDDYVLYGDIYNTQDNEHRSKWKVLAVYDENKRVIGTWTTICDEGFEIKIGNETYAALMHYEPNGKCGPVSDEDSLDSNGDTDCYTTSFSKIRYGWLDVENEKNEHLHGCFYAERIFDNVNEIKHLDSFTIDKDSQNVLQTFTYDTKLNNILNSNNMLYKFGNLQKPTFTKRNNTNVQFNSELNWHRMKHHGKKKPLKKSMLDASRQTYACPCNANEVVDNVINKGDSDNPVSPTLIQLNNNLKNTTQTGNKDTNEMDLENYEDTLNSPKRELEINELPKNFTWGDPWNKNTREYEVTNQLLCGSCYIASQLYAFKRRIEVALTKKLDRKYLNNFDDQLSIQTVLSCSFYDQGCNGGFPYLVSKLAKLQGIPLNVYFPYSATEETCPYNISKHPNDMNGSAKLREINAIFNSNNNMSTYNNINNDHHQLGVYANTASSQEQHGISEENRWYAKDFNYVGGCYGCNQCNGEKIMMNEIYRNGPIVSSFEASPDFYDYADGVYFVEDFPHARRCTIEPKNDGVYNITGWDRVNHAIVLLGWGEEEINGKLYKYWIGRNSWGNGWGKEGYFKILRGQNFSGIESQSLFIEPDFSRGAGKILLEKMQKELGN
row,SMILES,% Inhibition @ 10 uM
1,COc1ccc(/C=C2\SC(=O)N(Cc3ccccc3)C2=O)cc1OC,-4.5%
2,O=C1C(Cl)=C(NCC2CCCO2)C(=O)N1c1ccccc1 (stereo not shown),1.03%
3,N#Cc1c(N)n(-c2ccc(O)cc2)c2nc3ccccc3nc12,-1.8%
4,CCC(=O)Nc1ccc(S(=O)(=O)N2CCCC2)cc1,-2.3%
5,Cc1ccc(C(=O)NC2CCCCC2)cc1S(=O)(=O)N1CCCCC1,1.35%
6,CN(C)c1oc(COc2ccccc2F)nc1C#N,7.16%
7,Cn1c(=O)c2nc(Cl)n(CC(=O)c3ccc(Cl)cc3)c2n(C)c1=O,-0.63%
8,COc1ccccc1OCCn1c(C)nc2cc(C)c(C)cc21,-8.57%
9,Cc1ccccc1-c1nc2c(=O)n(C)c(=O)nc-2n(C)n1,8.19%
10,O=C(Nc1cccc2cccnc12)c1ccc(Cl)cc1,-1.43%
11,COCCNC(=O)C1CCCN(c2nnc(C)c3c(C)n(-c4ccc(Cl)cc4)nc23)C1 (stereo not shown),0.186%
12,Cc1nc(C)c(NC(=O)NC2CCCCC2)cc1NC(=O)NC1CCCCC1,4.18%
13,COc1ccc(-n2c(=S)[nH]c3c(c2=O)C2(CCCCC2)Cc2ccccc2-3)cc1,3.42%
14,CCOC(=O)C1/C(=N/O)C2CCN1CC2 (stereo not shown),-1.42%
15,N#CC1=C(N)Oc2[nH]nc(-c3cccnc3)c2C1c1cc(F)ccc1F (stereo not shown),-4.61%
16,CCC(C)N(CCCNC(=O)c1sc2nc3n(c(=O)c2c1C)CCCCC3)Cc1ccco1 (stereo not shown),-6.34%
17,CCO/C(O)=C1/C(C)=Nc2nc3ccccc3n2C1c1cc(Br)ccc1OC (stereo not shown),1.73%
18,COc1ccc(/C=C2\N=C(c3ccc(Cl)c(Cl)c3)OC2=O)c(OC)c1,-5.03%
19,CC(=O)c1ccc(N2CCN(Cc3cc(Br)cs3)CC2)cc1,2.41%
20,CC[C@H](NC(=O)[C@H](C[C@H](C)c1ccccc1)NC(=O)c1ccc(-c2ccccc2Cl)cc1)C(=O)c1nc2ccccc2o1,-3.48%
21,Cc1ccc(C(=O)Nc2ccccn2)cc1S(=O)(=O)N1CCOCC1,8.97%
22,CC(C)C[C@H](NC(=O)c1cc(-c2ccc(Cl)cc2)n(-c2ccc(S(N)(=O)=O)cc2)n1)C(=O)NCC#N,5.76%
23,COc1ccc(C2C3=C(O)CC(C)(C)CC3=Nc3nc(-c4cccc(O)c4)nn32)cc1 (stereo not shown),3.59%
24,CCOc1ccc(-c2nc(C#N)c(NC3CC3)o2)cc1,0.315%
25,O=C(CN(c1ccccc1)S(=O)(=O)c1ccccc1)N1CCC(Cc2ccccc2)CC1,3.81%

row,SMILES,% Inhibition @ 10 uM
1,O=C(CN1CCOCC1)N1CCN(c2ccc3ccccc3n2)CC1,-1.22%
2,Cc1ccc(-c2nc(C(=O)N3CCN(Cc4ccc5c(c4)OCO5)CC3)c3n2CCCCC3)cc1,-1.69%
3,O=C(CCN1C(=O)c2ccccc2Sc2ncccc21)NC1CCCc2ccccc21 (stereo not shown),7.39%
4,CCCn1c2ccccc2c2cnn(CC(=O)N3CCc4cc(OC)c(OC)cc4C3C)c(=O)c21 (stereo not shown),7.4%
5,CCOC(=O)C1=C(C)N=C2SCC(=O)N2C1c1ccc2c(c1)OCO2 (stereo not shown),4.88%
6,Cc1c(Cl)cccc1NC(=O)C(C)C,2.13%
7,COc1cccc(-c2[nH]nc3c2C(c2ccco2)N(C)C3=O)c1 (stereo not shown),3.88%
8,CCCCCNC(=O)CCNC(=O)c1cc(OC)c(OC)c(OC)c1,1.42%
9,COc1ccc(OC)c(CN2CCN(Cc3ccccc3C)CC2)c1,-7.9%
10,CCCC(=O)n1nc(-c2ccco2)nc1NCc1ccc(OC)cc1,-1.47%
11,CCCCSc1nnc2n(/N=C/c3ccc(Cl)cc3Cl)cnn12,-3.48%
12,CC(C)(C)OC(=O)N[C@@H](Cc1cccc([N+](=O)[O-])c1)C(=O)NCC#N,3.19%
13,C=C(C)Cn1c(SCC(N)=O)nc2sc3c(c2c1=O)CCC3,42.1%
14,Cc1cc(Cl)ccc1NC(=O)CN1C(=O)c2cccc3cccc1c23,-6.25%
15,CN1CCN(C(=O)C(c2ccccc2)N2Cc3ccccc3C2=O)CC1 (stereo not shown),5.71%
16,CCOC(=O)c1cnn(CCOC(=O)c2ccc(C)cc2)c1NC(=O)c1ccc(C)cc1,0.44%
17,Clc1ccc(OCCn2ccnc2)c(Cl)c1,1.57%
18,C=CCOc1ccc(/C=c2\sc3nc(=O)c(Cc4ccccc4)nn3c2=O)cc1,0.487%
19,N=C(NOC(=O)Cc1ccccc1)c1cccnc1,-1.25%
20,O=C(O)CC(NC(=O)c1cccs1)c1cccc(Cl)c1 (stereo not shown),0.9%
21,CC1=CC(=C2C(=O)c3ccccc3C2=O)C=C(C)N1CCOCCO,-1.64%
22,O=C(NCCCCc1ccccc1)c1ccc(Br)o1,-1.07%
23,O=C(NC1CC1c1ccccc1)c1cccs1 (stereo not shown),-2.83%
24,COc1ccccc1/C=C/CN(CCCN(C)C)CCCN(C)C,-4.14%
25,CS(=O)(=O)N1CCC(C(=O)NCCN2CCN(Cc3ccccc3)CC2)CC1,0.387%

row,SMILES,% Inhibition @ 10 uM
1,Cc1nc2ncnn2c(C)c1CCC(=O)N1CCC2(CC1)OCCO2,-2.25%
2,CCCN1CCC(N(C)CC(=O)OCC)CC1,-0.0953%
3,COc1ccc(/C=C2\N=C(C3CCCCC3)OC2=O)c(OC)c1,0.605%
4,FC(F)(F)c1cccc(-c2nnc3ccc4ccccc4n23)c1,5.2%
5,CN1CCN(C(=O)c2cc(-c3ccccc3O)on2)CC1,-7.15%
6,Cc1nnc2c(NCCCN3CCOCC3)nc3ccccc3n12,-0.495%
7,COc1ccc(OC)c(NC(=O)C2CCC2)c1,0.324%
8,CCC(=O)N1C(C(=O)NCc2ccc(CC)cc2)CSC12CCN(C)CC2 (stereo not shown),-0.486%
9,CC(C)c1ccc(CNc2ncc(-c3ccc(F)cc3)n2C)cc1,0.627%
10,O=C(c1ccc(Cl)cc1)N(Cc1ccc(Cl)cc1Cl)c1cccc(Cl)c1,-2.51%
11,O=C(CNS(=O)(=O)c1ccc(Cl)cc1)Nc1ccc2c(c1)OCO2,0.196%
12,C=CCNC(=O)CN(c1cc(C(F)(F)F)ccc1Cl)S(C)(=O)=O,-0.105%
13,O=C(O)c1ccc(NCc2ccc(Br)cc2)cc1,-3.43%
14,CCC(=O)N(CCc1ccc(OC)cc1)C1CC(=O)N(c2ccccc2)C1=O (stereo not shown),1.34%
15,O=C1C(=O)N2C(=C1C(=O)c1ccccc1)c1ccccc1CC21CCCC1,-3.09%
16,CCCC(=O)Nc1ccc(C(=O)Nc2ccccc2C#N)cc1,0.316%
17,Cc1nc2ccccc2c2oc(C(=O)NCCCN3CCc4ccccc4C3)cc12,-3.45%
18,CC(C)(CC(=O)O)Cc1nc(-c2ccc(Cl)cc2)no1,-7.27%
19,Cc1ccc(OCC(O)CN2CCN(Cc3ccccc3)CC2)c(C)c1 (stereo not shown),-5.1%
20,COc1ccc(C2=NOC(C(=O)Nc3cc(C)on3)C2)cc1 (stereo not shown),3.2%
21,Cc1oc(-c2ccccc2F)nc1CSc1nnc(C)n2c1cc1sccc12,-4.99%
22,CCCCn1c(=O)c(C(=O)Nc2cccc(C)c2C)c(O)c2ccccc21,6.98%
23,COc1ccc(-c2cc(-c3ccccc3)nc(Cl)n2)cc1OC,-1.5%
24,CCCc1nc2ccccc2c(=O)n1-c1ccc(O)cc1,-6.44%
25,Fc1ccccc1OCCCCCN1CCCC1,-0.351%

row,SMILES,% Inhibition @ 10 uM
1,COc1cccc(-c2cc(C(=O)NCc3ccc(F)cc3)c3ccccc3n2)c1,-4.93%
2,CCc1ccc(-c2nc(CS(=O)CC(=O)O)c(C)o2)cc1 (stereo not shown),7.43%
3,O=C(NC1(C(F)(F)F)C(=O)Nc2c1c(=O)[nH]c(=O)n2-c1ccc(Cl)cc1)c1ccc(F)cc1 (stereo not shown),1.93%
4,O=S(=O)(NC1CCCC1)c1ccc(S(=O)(=O)N2CCN(c3ncccn3)CC2)cc1,-8.61%
5,COc1ccccc1C(=O)Nc1ccc(Cl)cc1,-1.16%
6,COc1ccc(-c2nc(CS(=O)CC(=O)NCCN3CCCCC3C)c(C)o2)cc1OC (stereo not shown),-3.7%
7,CCOC(=O)C1=C(C)N=C(C)/C(=C(/O)OCC)C1c1cccs1 (stereo not shown),2.16%
8,COc1ccc(Br)cc1CNC(=O)CN1C(=O)CSc2ncccc21,-1.6%
9,COc1ccc(C(=O)N(Cc2nc(-c3ccc(C)cc3)no2)C(C)C)c(OC)c1,-6.89%
10,COC(=O)N1c2ccccc2Sc2ccccc21,9.66%
11,NC(=O)C1(N2CCCCC2)CCN(C(=O)c2ccc3c(c2)OCO3)CC1,2.08%
12,CCOc1cc(Br)c(Br)c(C=O)c1O,-4.27%
13,O=S1(=O)CCC(SCc2ccccc2)C1 (stereo not shown),-1.29%
14,Cc1cc(Cl)nc(Cl)c1C(=O)Nc1ccccc1F,3.29%
15,CC(Oc1ccc(C(=O)NCCc2ccccc2)cc1)C(=O)O (stereo not shown),-0.425%
16,CCOc1ccc(N2C(=O)C(C)SC23C(=O)N(CN2CCOCC2)c2ccccc23)cc1 (stereo not shown),12.5%
17,CC(C)CN1Cc2cccc(C(=O)O)c2C1=O,3.88%
18,Cc1ccc(OC(C)C(=O)Nc2ccc3ccccc3c2)cc1 (stereo not shown),2.48%
19,CC1CN(CC(O)COc2ccc(C(C)(C)C)cc2)CC(C)O1 (stereo not shown),-2.34%
20,Cc1ccc(S(=O)(=O)c2nnn3c2nc(NC2CCCCC2C)c2ccccc23)cc1 (stereo not shown),-8.82%
21,CCOc1ccccc1CNc1ccc(N2CCN(C(C)=O)CC2)cc1,-2.29%
22,CCN(CC)CCNC(=O)c1cnn(-c2ccc(F)cc2)c1C1CCN(C(=O)OC(C)(C)C)CC1,4.11%
23,Cc1c(CNCCc2cccs2)c(C(=O)O)c(C)n1Cc1ccc(F)cc1,-0.23%
24,CS(=O)(=O)C1=NN2C(=N)/C(=C\c3c[nH]c4ccccc34)C(=O)N=C2S1,-3.39%
25,Clc1ccc(C(NC2CCN(Cc3ccccc3)CC2)c2ccccc2)cc1 (stereo not shown),-5.2%

# Source: publication PMC6919601, “Identification of Plasmodium dipeptidyl aminopeptidase allosteric inhibitors by high throughput screening” (PLoS ONE, 2019)
